Some of the results follow.

B1: PhoQ; a variant is named by its letters at X, in order, P23837 (parent)
chain: MKKLLRLFFPLSLRVRFLLATAAVVLVLSLAYGMVALIGYSVSFDKTTFRLLRGESNLFYTLAKWENNKLHVELPENIDKQSPTMTLIYDENGQLLWAQRDVPWLMKMIQPDWLKSNGFHEIEADVNDTSLLLSGDHSIQQQLQEVREDDDDAEMTHSVAVNVYPATSRMPKLTIVVVDTIPVELKSSYMVWSWFIYVLSANLLLVIPLLWVAAWWSLRPIEALAKEVRELEEHNRELLNPATTRELTSLVRNLNRLLKSERERYDKYRTTLTDLTHSLKTPLXXLQXXLRSLRSEKMSVSDAEPVMLEQISRISQQIGYYLHRASMRGGTLLSRELHPVAPLLDNLTSALNKVYQRKGVNISLDISPEISFVGEQNDFVEVMGNVLDNACKYCLEFVEISARQTDEHLYIVVEDDGPGIPLSKREVIFDRGQRVDTLRPGQGVGLAVAREITEQYEGKIVAGESMLGGARMEVIFGRQHSAPKDE

In this assay the parent is B1. Nature of the assay: enrichment ratio after two sorts for PhoP signalling (ratio (wild type AVST 3.29)); higher = more functional. The note with it: with PhoP (E. coli).
For the variant NKDY, the enrichment ratio was not above 0.25.

With AWKL, the enrichment ratio worked out at 0.919.

With KKRH, the enrichment ratio was not above 0.25.

For the variant YWEK, the enrichment ratio was not above 0.25.

As to EMYV, the enrichment ratio is not above 0.25.

In the case of HSPL, the enrichment ratio was not above 0.25.

With LWKH, the enrichment ratio is not above 0.25.

For PRGS, the enrichment ratio was not above 0.25.

Regarding FDND, the enrichment ratio is not above 0.25.

On to QMHD, for which the enrichment ratio was not above 0.25.

Take QYYD: the enrichment ratio was not above 0.25.

Turning to DKDI, the enrichment ratio is not above 0.25.

Turning to NGSD, the enrichment ratio was not above 0.25.

Regarding PKVP, the enrichment ratio was not above 0.25.

Consider EAGN, for which the enrichment ratio was not above 0.25.

Consider MFPG, for which the enrichment ratio is not above 0.25.

DPCG: the enrichment ratio is not above 0.25.

VGGP: the enrichment ratio was not above 0.25.

Regarding FDTL, the enrichment ratio was not above 0.25.

As for AIIC, the enrichment ratio came to 10.2.

HEYW: the enrichment ratio is not above 0.25.

As for ARRT, the enrichment ratio was not above 0.25.

As for IWEH, the enrichment ratio was not above 0.25.

As for GEAQ, the enrichment ratio came out at 2.5.

On to YTPN, for which the enrichment ratio was not above 0.25.

Take SARY: the enrichment ratio is not above 0.25.

On to IKQF, for which the enrichment ratio was not above 0.25.

SSGT: the enrichment ratio was 6.7.

For IYMP, the enrichment ratio was not above 0.25.

For the variant DKYS, the enrichment ratio was not above 0.25.

As for SKTC, the enrichment ratio was found to be 11.1.

In the case of KCCN, the enrichment ratio is not above 0.25.

MDWT: the enrichment ratio was not above 0.25.

In the case of FKPK, the enrichment ratio is not above 0.25.

Regarding ESCH, the enrichment ratio was not above 0.25.

TVDG: the enrichment ratio is not above 0.25.

On to LGQM, for which the enrichment ratio is not above 0.25.

RFVI: the enrichment ratio is 0.664.

On to EHGC, for which the enrichment ratio is not above 0.25.

For QYML, the enrichment ratio is not above 0.25.

NHRM: the enrichment ratio is not above 0.25.

Take TGLI: the enrichment ratio was 12.2.

On to MWTP, for which the enrichment ratio is not above 0.25.

For the variant MEYQ, the enrichment ratio is not above 0.25.

FGIK: the enrichment ratio was not above 0.25.

Turning to MGVG, the enrichment ratio turned out to be 2.02.

For the variant YYYI, the enrichment ratio was not above 0.25.

Turning to NMTA, the enrichment ratio was not above 0.25.

As for TNSW, the enrichment ratio was 2.27.

Consider DLNL, for which the enrichment ratio was not above 0.25.

Consider DGHV, for which the enrichment ratio is not above 0.25.

On to YEEH, for which the enrichment ratio was not above 0.25.

Regarding HIFY, the enrichment ratio is not above 0.25.

With EAFG, the enrichment ratio is not above 0.25.

Consider TWWD, for which the enrichment ratio was not above 0.25.

On to TNNS, for which the enrichment ratio is 9.64.

Take WWHL: the enrichment ratio was not above 0.25.

Consider QGIG, for which the enrichment ratio was not above 0.25.

As for QYTR, the enrichment ratio was not above 0.25.

On to YVLS, for which the enrichment ratio was not above 0.25.

Take PGSI: the enrichment ratio was not above 0.25.

With FAGE, the enrichment ratio was not above 0.25.

DPYH: the enrichment ratio was not above 0.25.

AFNG: the enrichment ratio is not above 0.25.

For PFRI, the enrichment ratio was not above 0.25.

Consider DTQD, for which the enrichment ratio is not above 0.25.

In the case of MHDW, the enrichment ratio is not above 0.25.

NPAM: the enrichment ratio is not above 0.25.

As to SYIK, the enrichment ratio is not above 0.25.

For KMEI, the enrichment ratio was not above 0.25.

Take SYVD: the enrichment ratio was not above 0.25.

With KPMT, the enrichment ratio was not above 0.25.

Regarding QFWC, the enrichment ratio stood at 17.1.

For GTTH, the enrichment ratio is not above 0.25.

As to IRNC, the enrichment ratio is not above 0.25.

Regarding TCEQ, the enrichment ratio is not above 0.25.

Take DEIE: the enrichment ratio is not above 0.25.

For the variant ETDN, the enrichment ratio was not above 0.25.

DFSE: the enrichment ratio is not above 0.25.

Turning to AALM, the enrichment ratio was 14.8.

With ELNI, the enrichment ratio was not above 0.25.

Regarding RISV, the enrichment ratio is not above 0.25.

Turning to RPTY, the enrichment ratio was not above 0.25.

Turning to KCQY, the enrichment ratio is not above 0.25.

As to IEAM, the enrichment ratio was not above 0.25.

With SLSY, the enrichment ratio was 3.63.

On to PNYP, for which the enrichment ratio was not above 0.25.

On to SGKD, for which the enrichment ratio is not above 0.25.

For the variant GEWY, the enrichment ratio is not above 0.25.

For the variant NYAW, the enrichment ratio is not above 0.25.

GHIW: the enrichment ratio is not above 0.25.

For the variant TEPG, the enrichment ratio was not above 0.25.

Take MQHQ: the enrichment ratio was not above 0.25.

Regarding ADEV, the enrichment ratio was not above 0.25.

ANKK: the enrichment ratio was not above 0.25.

With KVKT, the enrichment ratio was not above 0.25.

As for SSTV, the enrichment ratio worked out at 10.5.

Consider KEVT, for which the enrichment ratio was not above 0.25.

For MGDM, the enrichment ratio was not above 0.25.

As to RRWY, the enrichment ratio is not above 0.25.

For PSET, the enrichment ratio is not above 0.25.

As to REDS, the enrichment ratio is not above 0.25.

As to YEPS, the enrichment ratio was not above 0.25.

As for ENHI, the enrichment ratio is not above 0.25.

In the case of QLHR, the enrichment ratio was not above 0.25.

With EQGN, the enrichment ratio is not above 0.25.

In the case of KYFR, the enrichment ratio was not above 0.25.

Consider VAGV, for which the enrichment ratio is not above 0.25.

As for QAMG, the enrichment ratio is not above 0.25.

As for KLED, the enrichment ratio is not above 0.25.

For VFGC, the enrichment ratio was not above 0.25.

In the case of MNTT, the enrichment ratio was not above 0.25.

For VRMG, the enrichment ratio was not above 0.25.

FIRT: the enrichment ratio was not above 0.25.

As to VADL, the enrichment ratio is not above 0.25.

Turning to SGWE, the enrichment ratio was not above 0.25.

Regarding HGPT, the enrichment ratio is not above 0.25.

Take MVPS: the enrichment ratio is not above 0.25.

Take DGVI: the enrichment ratio was not above 0.25.

For the variant SHFR, the enrichment ratio was not above 0.25.

Regarding VDHD, the enrichment ratio was not above 0.25.

As for CHNH, the enrichment ratio was not above 0.25.

For FWQL, the enrichment ratio is not above 0.25.

Consider PQWD, for which the enrichment ratio was not above 0.25.

On to KKPN, for which the enrichment ratio was not above 0.25.

Turning to HAKE, the enrichment ratio is not above 0.25.

As for KDRM, the enrichment ratio is not above 0.25.

Consider HRCP, for which the enrichment ratio was not above 0.25.

For PRDC, the enrichment ratio was not above 0.25.

Consider DQWW, for which the enrichment ratio was not above 0.25.

For MRSQ, the enrichment ratio was not above 0.25.

In the case of FRIH, the enrichment ratio is not above 0.25.

Take TIRR: the enrichment ratio was not above 0.25.

Turning to KVDM, the enrichment ratio is not above 0.25.

In the case of LHGV, the enrichment ratio is not above 0.25.

In the case of PTIF, the enrichment ratio was not above 0.25.

As to LFLE, the enrichment ratio was not above 0.25.

Consider GWHG, for which the enrichment ratio is not above 0.25.

In the case of CFVF, the enrichment ratio was not above 0.25.

Consider THVR, for which the enrichment ratio was not above 0.25.

With QFTK, the enrichment ratio is not above 0.25.

As for PNFH, the enrichment ratio is not above 0.25.

On to WPVM, for which the enrichment ratio was not above 0.25.

For SFSG, the enrichment ratio was determined as 1.81.

For the variant VFWC, the enrichment ratio is not above 0.25.

MMEW: the enrichment ratio was not above 0.25.

With DWYH, the enrichment ratio was not above 0.25.

Consider PTTN, for which the enrichment ratio was not above 0.25.

In the case of TYGV, the enrichment ratio was not above 0.25.

On to CDPS, for which the enrichment ratio was not above 0.25.

As to RQCT, the enrichment ratio is not above 0.25.

Turning to RDRV, the enrichment ratio is not above 0.25.

Take LDNV: the enrichment ratio is not above 0.25.

Source of the values: a collection of fitness landscapes (doi:10.1126/science.1257360).
